The supplement of paper PMC3334620
Whole data set: some 33,000 sequences, median “E-score (-0.5 to 0.5)” near -0.021, cut for the highest 2% near 0.32. Some of the results follow.

What follows are sequences tested against T1, Zap1 (UniProt P47043) (assay: PBM E-score (8-mer binding enrichment) (E-score (-0.5 to 0.5)); higher = stronger / more preferred TF binding; most listed sequences are background and not binding sites). Details: protein concentration: 200 nM; construct: GST-full length.
T1 sequence: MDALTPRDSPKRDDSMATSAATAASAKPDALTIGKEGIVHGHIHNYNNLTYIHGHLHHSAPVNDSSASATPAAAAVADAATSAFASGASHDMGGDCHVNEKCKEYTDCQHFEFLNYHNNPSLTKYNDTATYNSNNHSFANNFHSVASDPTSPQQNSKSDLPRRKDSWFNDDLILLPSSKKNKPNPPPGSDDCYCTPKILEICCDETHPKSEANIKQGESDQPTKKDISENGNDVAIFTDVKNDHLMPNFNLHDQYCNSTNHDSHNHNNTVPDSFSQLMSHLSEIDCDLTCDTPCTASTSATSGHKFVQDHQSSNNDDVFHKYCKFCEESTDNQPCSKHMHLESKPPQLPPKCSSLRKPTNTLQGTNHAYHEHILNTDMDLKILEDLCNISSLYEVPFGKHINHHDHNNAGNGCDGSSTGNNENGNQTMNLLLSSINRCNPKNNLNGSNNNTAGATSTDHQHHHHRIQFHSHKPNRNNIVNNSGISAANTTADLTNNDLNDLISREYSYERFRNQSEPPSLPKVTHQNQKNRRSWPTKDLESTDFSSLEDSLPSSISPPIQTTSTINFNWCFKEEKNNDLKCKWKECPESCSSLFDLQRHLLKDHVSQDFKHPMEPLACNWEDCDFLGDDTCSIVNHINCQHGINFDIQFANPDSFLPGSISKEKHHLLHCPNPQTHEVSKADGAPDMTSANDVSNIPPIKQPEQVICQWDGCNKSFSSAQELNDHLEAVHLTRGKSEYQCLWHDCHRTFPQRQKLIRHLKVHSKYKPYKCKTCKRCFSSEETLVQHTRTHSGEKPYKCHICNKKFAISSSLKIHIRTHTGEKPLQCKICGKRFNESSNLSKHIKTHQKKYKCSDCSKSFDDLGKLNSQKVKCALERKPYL
Method in brief: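 PURExpress in vitro transcription/translation supplied GST-tagged yeast transcription factors, either full-length or DNA-binding domain. Applied at about 100-200 nM to universal all-10-mer Agilent arrays double-stranded by primer extension, the bound protein was detected with fluorescent anti-GST. E-scores, modified Wilcoxon-Mann-Whitney statistics, were given by the Universal PBM Analysis Suite to ungapped eight-base words pooled with their reverse complements after masliner normalisation.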

| Sequence | PBM E-score |
| --- | --- |
| ATGGAATG | -0.123 |
| ACGGCAAC | -0.117 |
| GATTATGC | 0.0154 |
| GATATAAA | 0.139 |
| CCCGAGCG | 0.0625 |
| AAGAACCT | 0.262 |
| ACAACTTG | -0.0423 |
| AGGCTTTC | -0.0789 |
| CGTTGAGA | -0.13 |
| ACTATTGG | 0.0433 |
| CTATGTCA | -0.0447 |
| CCTAATGA | 0.00936 |
| ACACCACA | 0.0847 |
| ACCCTTGC | 0.381 |
| GGTATCTA | 0.248 |
| CTAACGTA | 0.0705 |
| GTAATTAA | 0.174 |
| AGAGTGAC | -0.124 |
| ACGCTCTC | -0.218 |
| TCATATGA | 0.173 |
| AAGCAGCC | -0.11 |
| GGAAACGA | -0.0251 |
| AATGCCAT | -0.133 |
| AACCGGTT | 0.348 |
| TCCGCCGA | -0.0045 |

| Sequence | PBM E-score |
| --- | --- |
| AGAATTAA | -0.0676 |
| CAGGTCAG | 0.0791 |
| GCAGGTCA | 0.194 |
| AACCGGGT | 0.319 |
| ACACAGAA | 0.0785 |
| AGAGGGAA | -0.164 |
| CCGCAACC | 0.34 |
| AATCGTTG | -0.0687 |
| CGGCAGAG | -0.142 |
| AAGTCATG | -0.00269 |
| AAATGAGA | 0.0578 |
| CACTGAGA | -0.287 |
| ACACATTC | -0.0566 |
| AAATAGGT | 0.278 |
| AGCGCGTA | -0.172 |
| ACCTGAAG | 0.184 |
| GCGGACGA | 0.00898 |
| AGTAAACT | 0.0142 |
| TAAATTGA | 0.227 |
| ATCCCGAA | 0.079 |
| AATGTTCT | -0.0884 |
| AGAGCATG | -0.193 |
| TGCATACA | -0.0614 |
| CGGTACTA | 0.0114 |
| GTAGTCTA | 0.027 |

| Sequence | PBM E-score |
| --- | --- |
| CTACTAAG | 0.014 |
| CGAAAACA | 0.17 |
| CAGGCTAA | -0.222 |
| GTTACCTA | 0.294 |
| CGAGAGCA | 0.00534 |
| ATTTCCGC | 0.146 |
| AGATCCGA | -0.0672 |
| ATCCCCTA | 0.0194 |
| AGACCGGA | -0.0857 |
| AATTTCCC | -0.134 |
| CTTGAAAA | 0.189 |
| AACCGGTC | 0.14 |
| CGCGCCCG | -0.27 |
| ACGCTCAA | 0.0984 |
| AGCACAAG | -0.161 |
| CGCAAATC | -0.103 |
| CGACTGTC | -0.208 |
| CGCCGCAC | -0.136 |
| AAGCCTGT | -0.128 |
| CTGCCACA | -0.127 |
| CTCTAAAC | 0.0266 |
| GCGAGCAA | -0.169 |
| GGATGATA | 0.0603 |
| AACTCTAA | 0.0617 |
| CTGGCCAG | -0.202 |

| Sequence | PBM E-score |
| --- | --- |
| CGTTGAAA | 0.0873 |
| ATGCGATG | -0.221 |
| GCGTAAAA | 0.0769 |
| GCTCTCTA | -0.246 |
| ACGAGATG | -0.0678 |
| TCACCAAA | 0.113 |
| CTTTTAGC | 0.114 |
| AGCCGACC | -0.16 |
| CATTAGCC | -0.125 |
| CCACTGAA | 0.0888 |
| CACCCACA | 0.168 |
| GATTATCC | 0.0574 |
| CCACGGGA | -0.115 |
| TAGACCCA | 0.0451 |
| AGGTACAC | 0.11 |
| AGGAAGGG | -0.345 |
| CGGCCGTA | -0.0113 |
| AATCTTGG | -0.124 |
| CTCTAGCA | -0.267 |
| AAAAAAAA | 0.268 |
| ACTGTAGC | -0.136 |
| CCGCCAGG | 0.0562 |
| TCCTCCCA | -0.284 |
| CAGTGAGC | -0.179 |
| AGGGGTTG | 0.337 |

| Sequence | PBM E-score |
| --- | --- |
| ATGGTACA | 0.08 |
| TGCGACAA | 0.136 |
| GAAGAAGC | -0.231 |
| ACCCGAAC | 0.268 |
| CGCCCCCA | -0.2 |
| ATAGCATA | 0.0123 |
| GCTACTAA | -0.0541 |
| AACGCGGA | 0.0555 |
| GCCGGGGA | -0.283 |
| GGAGCCAA | -0.00669 |
| ATTAGGGG | -0.103 |
| ACCCCTCC | 0.237 |
| AAGCCACT | -0.191 |
| AAGGAGAT | -0.214 |
| CTAGCAAA | 0.131 |
| ACGAGACT | -0.16 |
| ACCCTACA | 0.419 |
| CATTCGAC | -0.0507 |
| CCGCAGGC | -0.0333 |
| CCTAGTGC | 0.0552 |
| AATTGGGC | -0.0672 |
| AAGCAGAA | -0.0277 |
| GATTTTCA | -0.027 |
| AGACAGTA | -8e-05 |
| AGGGGTAG | 0.312 |

| Sequence | PBM E-score |
| --- | --- |
| GAAAGCTA | -0.286 |
| AACGTCTG | -0.0903 |
| AATATCAT | 0.111 |
| AATCCTAA | -0.0168 |
| ACTCAACT | 0.0202 |
| TCCACAAA | 0.115 |
| ACGATTTA | 0.241 |
| GGAATCCA | -0.115 |
| GGTAACGA | 0.294 |
| ACGTATGA | 0.0742 |
| CTACGGCC | -0.247 |
| CGTTCCCC | -0.0626 |
| TGAATGCA | 0.0491 |
| CGGGGCAC | -0.127 |
| CCGGAATC | -0.0521 |
| GTATTGAA | 0.161 |
| CGGCGAAG | -0.0345 |
| AGTTCTCA | 0.0585 |
| TATACCAA | 0.213 |
| AAAAAATA | 0.0377 |
| TCTGGCAA | -0.101 |
| GCTATCAA | 0.0517 |
| AGGTTATG | 0.475 |
| AACAAATC | 0.0507 |
| GTCTACCA | -0.0785 |

| Sequence | PBM E-score |
| --- | --- |
| TGTCTCAA | 0.0208 |
| CGCGCGTA | -0.0338 |
| GATCTGGA | -0.094 |
| AGCTCGAT | -0.221 |
| GAAGCTAA | -0.162 |
| GCTACTCC | -0.0799 |
| CTGTAAAA | 0.206 |
| ACAGTATA | 0.0206 |
| GGACGTCA | -0.164 |
| GGCATCTA | -0.109 |
| ATTCTTAG | -0.0155 |
| ACAAACTA | 0.174 |
| ACACCCTG | 0.21 |
| AATTCTCG | 0.00213 |
| CCCCCGTC | -0.421 |
| GGCATGAA | -0.0985 |
| CCGCGTCC | 0.0947 |
| AGAACGCC | -0.0981 |
| AATGTAAT | 0.181 |
| GATTAACC | 0.173 |
| AATGCAAA | 0.119 |
| CGGTCCCA | -0.0137 |
